Experimental data from publication PMC4336329 (PLoS ONE, 2015).
Among all 310,000 compounds or so, about 2,200 (0.71%) showed an effect of 50% or more. The effect is printed as a negative number. The list shows a part of the results.

biological target: human ether-à-go-go-related gene (hERG) potassium channel (human, UniProt Q12809); assay: primary screen, population patch clamp on CHO cells stably expressing hERG
Sequence (Q12809 whole entry, looked up): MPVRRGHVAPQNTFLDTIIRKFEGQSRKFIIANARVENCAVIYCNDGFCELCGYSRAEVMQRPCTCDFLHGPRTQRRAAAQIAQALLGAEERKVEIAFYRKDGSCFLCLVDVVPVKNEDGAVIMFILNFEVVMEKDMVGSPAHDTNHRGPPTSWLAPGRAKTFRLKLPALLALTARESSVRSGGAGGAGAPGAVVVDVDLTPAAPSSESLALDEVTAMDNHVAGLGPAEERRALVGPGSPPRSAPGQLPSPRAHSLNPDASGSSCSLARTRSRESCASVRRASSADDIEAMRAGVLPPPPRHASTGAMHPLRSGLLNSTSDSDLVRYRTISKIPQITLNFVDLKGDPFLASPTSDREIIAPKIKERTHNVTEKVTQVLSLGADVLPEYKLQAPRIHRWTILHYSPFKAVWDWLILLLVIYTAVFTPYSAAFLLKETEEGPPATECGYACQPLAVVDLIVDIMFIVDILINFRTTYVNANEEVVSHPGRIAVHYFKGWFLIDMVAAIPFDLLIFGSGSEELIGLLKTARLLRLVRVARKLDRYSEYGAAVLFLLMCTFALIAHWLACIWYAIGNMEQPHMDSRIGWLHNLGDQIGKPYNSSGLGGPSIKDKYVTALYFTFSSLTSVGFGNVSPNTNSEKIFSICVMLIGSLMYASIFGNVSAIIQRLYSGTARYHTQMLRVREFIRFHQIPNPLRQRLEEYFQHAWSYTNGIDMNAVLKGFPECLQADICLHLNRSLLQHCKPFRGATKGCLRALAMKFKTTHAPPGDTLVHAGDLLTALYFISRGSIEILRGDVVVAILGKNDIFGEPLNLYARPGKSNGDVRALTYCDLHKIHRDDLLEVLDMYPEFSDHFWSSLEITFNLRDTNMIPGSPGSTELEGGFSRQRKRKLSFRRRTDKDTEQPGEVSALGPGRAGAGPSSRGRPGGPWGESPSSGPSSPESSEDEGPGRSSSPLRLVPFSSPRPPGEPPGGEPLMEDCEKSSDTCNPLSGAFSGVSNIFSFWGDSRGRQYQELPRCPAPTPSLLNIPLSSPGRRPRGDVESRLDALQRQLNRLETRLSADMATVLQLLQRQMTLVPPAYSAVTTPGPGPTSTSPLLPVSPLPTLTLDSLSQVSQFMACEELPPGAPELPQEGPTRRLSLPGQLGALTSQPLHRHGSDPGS

Compound | hERG current change (%, negative = inhibition) at 1uM [%]
COc1cc(CC(=O)OCC(=O)Nc2ccc(N3CCOCC3)cc2)cc(OC)c1OC | 8.9
O=C(CSc1ncnc2c1nnn2-c1ccc(F)cc1)NCc1ccco1 | 3
CC(=O)c1c(O)cc(C)n(Cc2ccccc2)c1=O | 4.37
O=C(Nc1cccc(S(=O)(=O)N2CCCC2)c1)C1CCCN1C(=O)c1cccs1 (centres unmarked) | 9.22
COC(=O)C1=C(c2ccc(C(C)=O)cc2)C[C@@H]2CC[C@H]1N2C(=O)NCCO | 6.97
CC(=NCc1ccco1)c1c(O)n(-c2ccccc2C)c(=O)[nH]c1=O | 22.5
Oc1ccc(/C=N/N2CCN(c3ccccn3)CC2)cc1 | 10.7
O=C1NCN(CCO)CN1 | 7.35
CCOCCCNC(=O)c1ccc2c(c1)ncn2-c1cccc(C)c1 | -3.56
Nc1ccccc1C(=O)Nc1cccc(C(=O)O)c1 | 12.9
Cc1cc(/C=C2/C(=O)NC(=O)N(c3ccc(Br)cc3)C2=O)c(C)n1C | 11.2
COc1cc(S(=O)(=O)Nc2ccccc2C)ccc1NC(=O)c1ccncc1 | 7.66
CC(C)OC(=O)c1c(NC(=O)CCn2nnc3ccccc32)sc2c1CCCC2 | 18.2
CC(NC(=O)/C(C#N)=C/c1ccc(N2CCOCC2)cc1)c1ccccc1 (centres unmarked) | -1.86
COC(=O)CN1C(=O)CC(C)(C)S(=O)c2ccccc21 (centres unmarked) | 2.94
Cc1nc2ccccn2c1/C(O)=C1\C(=O)C(=O)N(CCN(C)C)C1c1ccco1 (centres unmarked) | 1.98
CC(Oc1ccccc1)C(=O)N=C1SC2CS(=O)(=O)CC2N1c1ccc(F)cc1 (centres unmarked) | 3.14
CC1(C(=O)O)CC(C)(C(=O)O)CC(C)(C(=O)O)C1 (centres unmarked) | 16.2
COc1ccc(OCC(=O)Nc2ccc3c(c2)nc(CCN2CCCCC2)n3C)cc1 | -31.3
O=C(Nc1ccc(O)cc1)N1CCOCC1 | 8.17
CN(C(=O)COC(=O)C1=COCCO1)c1c(N)n(Cc2ccccc2)c(=O)[nH]c1=O | 24.7
Cc1nn(C)c(C)c1CN(C)C(=O)C1CCC(=O)N(C2CCCCCC2)C1 (centres unmarked) | 15.9

Compound | hERG current change (%, negative = inhibition) at 1uM [%]
CCOC(=O)Oc1ccc(C(=O)OCCCN(C)C)cc1OC.Cl | -3.8
CCOC(=O)c1cc(-c2ccc(OC)cc2F)nc2c1c(C)nn2CCC#N | 8.73
COc1ccc(C(=O)NCC(c2cccs2)N2CCOCC2)cc1OC (centres unmarked) | 6.87
Cc1cc(C)c(NC(=S)N(C)C)cc1C | 3.51
COc1ccc(S(=O)(=O)N(C)c2ccc(C(=O)N3CCN(c4ccccc4)CC3)cc2)cc1OC | 0.78
COc1ccc(NC(=O)CSc2ccc(-c3ccco3)nn2)c(OC)c1 | 14.6
CCN(c1ccccc1)S(=O)(=O)c1ccc(OCC(=O)N2CCCC2)cc1 | 11.5
CCn1c(SCC(=O)NC2CC2)nnc1-c1ccc(C)cc1 | 7.5
CC(C)c1ccc(/C=C/C(=O)Nc2nncs2)cc1 | 10.6
OCC1(Cc2ccccc2)CCCN(Cc2ccc(-c3ccco3)cc2)C1 (centres unmarked) | 1.72
COc1cccc(Cn2cnc3c(N)c(C)c(C)cc32)c1 | 3.4
COc1ccc(NC(=O)CN2C(=O)/C(=C3\SC(=S)N(CCC(=O)O)C3=O)c3ccccc32)cc1 | 10.9
Cc1oc2c(c(C)cc3oc(=O)c(CC(=O)N[C@@H](C)C(=O)O)c(C)c32)c1C | 13.7
CC(=O)N1c2ccc(S(=O)(=O)N(C)CC(=O)NCc3ccc(C)cc3)cc2CC1C (centres unmarked) | 13
O=C(CSc1nnnn1-c1ccc(F)cc1)NNC(=O)c1ccco1 | 0.5
COc1ccc(F)cc1S(=O)(=O)N1CCC2(CC1)OCCN2S(=O)(=O)c1cccs1 | -1.29
C/C(=N\Nc1ccc(F)cc1F)c1ccc(N2CCOCC2)cc1 | 10.8
OCC[C@@H]1C[C@H](O)[C@@H](O)[C@]2(CCc3ccccc3CO2)O1 | 12.7
CC(/C=C/c1ccco1)=N/NC(=O)OC(C)(C)C | 11.6
CCc1nnc(NC(=O)CCC(=O)N2CCN(S(=O)(=O)c3cc(Cl)ccc3OC)CC2)s1 | 5.75
Cl.NC1=NC2(CCCCC2)N(c2ccc(F)cc2)C(N)=N1 | 2.96
COc1cc(/C(C)=N/N2CCN(Cc3ccc(C)cc3)CC2)ccc1O | -3.97
